Data taken from PMC4336329 (PLoS ONE, 2015).
Hit rate of the full screen: of about 310,000 compounds, about 14,000 (4.5%) showed an effect of 50% or more. Effects have a minus sign here. Some of the results follow.

What follows are compounds tested against human ether-à-go-go-related gene (hERG) potassium channel (human, UniProt Q12809) (assay: primary screen, population patch clamp on CHO cells stably expressing hERG).
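Also: peak tail current of the secondary pulse compared with the same well before compound.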

Sequence of human ether-à-go-go-related gene (hERG) potassium channel (Q12809 whole entry, looked up): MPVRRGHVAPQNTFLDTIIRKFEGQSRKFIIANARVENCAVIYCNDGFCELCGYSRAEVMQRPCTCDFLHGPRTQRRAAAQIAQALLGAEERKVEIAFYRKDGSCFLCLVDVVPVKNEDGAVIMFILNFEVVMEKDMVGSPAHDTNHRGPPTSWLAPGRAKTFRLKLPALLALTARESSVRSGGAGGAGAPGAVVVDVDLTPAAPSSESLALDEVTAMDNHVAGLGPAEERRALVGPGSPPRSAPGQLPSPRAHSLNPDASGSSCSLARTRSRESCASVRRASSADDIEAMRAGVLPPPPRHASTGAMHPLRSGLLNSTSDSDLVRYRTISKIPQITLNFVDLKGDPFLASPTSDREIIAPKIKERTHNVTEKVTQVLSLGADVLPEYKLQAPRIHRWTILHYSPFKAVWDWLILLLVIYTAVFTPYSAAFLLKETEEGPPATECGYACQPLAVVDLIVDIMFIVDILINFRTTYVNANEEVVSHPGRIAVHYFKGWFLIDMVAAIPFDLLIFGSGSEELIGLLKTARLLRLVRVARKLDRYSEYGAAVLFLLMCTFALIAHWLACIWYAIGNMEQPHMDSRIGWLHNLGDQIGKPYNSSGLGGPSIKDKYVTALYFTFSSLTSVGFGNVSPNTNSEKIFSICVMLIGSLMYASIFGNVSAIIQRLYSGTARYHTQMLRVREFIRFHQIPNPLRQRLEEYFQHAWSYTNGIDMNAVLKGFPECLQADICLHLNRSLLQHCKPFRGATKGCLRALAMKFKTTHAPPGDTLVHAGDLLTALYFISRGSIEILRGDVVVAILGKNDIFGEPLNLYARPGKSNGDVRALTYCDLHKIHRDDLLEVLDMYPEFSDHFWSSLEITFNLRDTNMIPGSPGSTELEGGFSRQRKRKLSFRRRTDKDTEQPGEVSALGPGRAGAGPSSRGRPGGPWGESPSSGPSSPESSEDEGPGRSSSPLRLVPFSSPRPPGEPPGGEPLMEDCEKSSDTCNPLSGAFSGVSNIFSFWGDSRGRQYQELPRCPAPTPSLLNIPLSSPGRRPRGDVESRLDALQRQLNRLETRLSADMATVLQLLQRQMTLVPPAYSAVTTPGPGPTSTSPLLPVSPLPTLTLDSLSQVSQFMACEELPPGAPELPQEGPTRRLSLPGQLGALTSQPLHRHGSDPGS

| SMILES | hERG current change (%, negative = inhibition) at 10uM |
| --- | --- |
| COc1ccc(-c2cn(-c3ccc(Br)cc3)c3[n+]2CCS3)cc1.[Br-] | -66.7% |
| Cc1cc(O)ccc1NC(=O)CCN1C(=O)c2ccc([N+](=O)[O-])cc2C1=O | -24.1% |
| Cc1ccc(NS(=O)(=O)c2ccc(C(=O)NCCCN3CCCC3=O)cc2)cc1C | 0.842% |
| Cc1ccccc1N1C(=O)Cc2ccccc2C1=O | 15.1% |
| O=c1c2ccccc2[nH]c(=S)n1CCN1CCCC1 | -19.1% |
| COc1ccccc1NC(=O)Cn1ccn(-c2cccc3ccccc23)c(=O)c1=O | -14.6% |
| CCn1cc(C(=O)N2CCOCC2)c(=O)c2cc(S(=O)(=O)N(C)C)ccc21 | 1.21% |
| CCOC(=O)CSc1nc2c(sc(=S)n2-c2ccccc2)c(=O)[nH]1 | -8.56% |
| O=C(c1ccccc1)N1CCC(c2nc(-c3ccc(S(=O)(=O)N4CCOCC4)cc3)no2)CC1 | -60.8% |
| O=C(NN1C(=O)C2C3C=CC([C@H]4CC34)[C@@H]2C1=O)c1ccc(Br)cc1 (some centres unmarked) | 8.18% |
| Cc1nc2ccc(NS(=O)(=O)c3ccc(F)cc3F)cc2s1 | -28.3% |
| O=C(Nc1c(C(=O)Nc2ccccc2)cnn1-c1ccccc1)c1ccco1 | -10.2% |
| CCOCCCNC(=O)c1ccc2c(c1)N(CC)C(=O)c1ccccc1S2=O (centres unmarked) | 16.2% |
| COCc1cc(C)nc(SCC(=O)Oc2ccccc2)c1C#N | 9.45% |
| CC(C)(C)C(=O)Nc1nc(C2CCCN2S(=O)(=O)c2ccc(Cl)cc2)cs1 (centres unmarked) | -30.5% |
| CCc1nnc(NC(=O)CN2CCN(Cc3cccc(F)c3)CC2)s1 | -0.435% |
| O=C(N/N=C/c1ccc[nH]1)c1cc(-c2cccs2)nc2ccccc12 | 0.659% |
| O=C(C1CCC(=O)N(C2CC2)C1)N1CCC(Oc2ccccc2F)CC1 (centres unmarked) | 2.26% |
| CC(C)c1ccc(S(=O)(=O)c2cc3cc(Br)ccc3oc2=O)cc1 | -2.26% |
| COc1ccccc1OCCNC(=O)CSC(=S)N1CCCC1 | -4.17% |
| CCC1=C2CC[C@H]3C(=O)N(CC)C(=O)[C@H]3[C@H]2[C@@]2(Cc3ccccc3)C(=NCc3ccccc3)OC(=O)N2C1=O | -25% |

| SMILES | hERG current change (%, negative = inhibition) at 10uM |
| --- | --- |
| CCOC(=O)C1CCCN(C(=O)C2CCN(S(=O)(=O)N3CCC4(CC3)OCCO4)CC2)C1 (centres unmarked) | 3.08% |
| CC1Sc2ccc(C(=O)Nc3cc(S(C)(=O)=O)ccc3Cl)cc2NC1=O (centres unmarked) | 3.5% |
| CC1(C)CC(=O)C(C(c2ccncc2)C2C(=O)CC(C)(C)CC2=O)C(=O)C1 | 3.95% |
| COc1ccc(Nc2nc3ccc(C)cn3c(=O)c2/C=N/O)cc1 | 26.6% |
| CS(=O)(=O)O.Cc1c(O)cccc1C(=O)N[C@@H](CSc1ccccc1)[C@H](O)CN1C[C@H]2CCCC[C@H]2C[C@H]1C(=O)NC(C)(C)C | -4.69% |
| CN(C)CC[n+]1ccc(C(=O)c2ccccc2)cc1.Cl.[Cl-] | 25.4% |
| O=C(c1cccnc1)N1CCCC(Nc2ccc(F)cc2)C1 (centres unmarked) | 7.99% |
| Cl.N=c1c2c(n(Cc3ccc(Cl)cc3Cl)c3c1CCC3)CCCC2 | -29% |
| Cc1ccc2oc(C(=O)N(C)Cc3ccon3)c(C)c2c1 | 4.23% |
| Cc1ccc(S(=O)(=O)NCCNC(=O)CN2CCCC2)cc1 | -11.9% |
| O=C(c1ccc(CN2CCOCC2)cc1)N1CCN(c2ccccc2F)CC1 | -3.33% |
| CC(=O)NC1(NC(C)=O)CCN(C)CC1 | 11% |
| N/C(=N\OC(=O)CC(c1ccccc1)c1ccccc1)c1cccnc1 | 11.1% |
| COc1cccc(C2c3[nH]c4ccccc4c3CCN2C(=O)Cn2cncn2)c1OC (centres unmarked) | 0.145% |
| Fc1ccc(Cn2c(SCc3ccc(F)c(C(F)(F)F)c3)nnc2C(F)(F)F)cc1 | -4.63% |
| COc1ccc(CN(CCc2ccccc2)Cc2ccccc2)cc1OC.O=C(O)C(=O)O | -9.99% |
| O=C(COc1ncnc2ccccc12)Nc1cc([N+](=O)[O-])ccc1Cl | 28% |
| CCN(CC)CCNC(=O)C1c2ccccc2C(=O)N(C)C1c1cn(C)c2ccccc12 (centres unmarked) | -19.5% |
| CC(C)(C)c1cc(C(=O)O)c(CN2CCCCC2)o1.Cl | -23.5% |
| O=C(Nc1ccccc1C(=O)NCc1ccco1)Nc1cccc2ccccc12 | 25.1% |
